Results on 4 substances are retold here after paper PMC4256266.

Amino acid sequences for entries named in this document (tags omitted).
UniProt Q03267: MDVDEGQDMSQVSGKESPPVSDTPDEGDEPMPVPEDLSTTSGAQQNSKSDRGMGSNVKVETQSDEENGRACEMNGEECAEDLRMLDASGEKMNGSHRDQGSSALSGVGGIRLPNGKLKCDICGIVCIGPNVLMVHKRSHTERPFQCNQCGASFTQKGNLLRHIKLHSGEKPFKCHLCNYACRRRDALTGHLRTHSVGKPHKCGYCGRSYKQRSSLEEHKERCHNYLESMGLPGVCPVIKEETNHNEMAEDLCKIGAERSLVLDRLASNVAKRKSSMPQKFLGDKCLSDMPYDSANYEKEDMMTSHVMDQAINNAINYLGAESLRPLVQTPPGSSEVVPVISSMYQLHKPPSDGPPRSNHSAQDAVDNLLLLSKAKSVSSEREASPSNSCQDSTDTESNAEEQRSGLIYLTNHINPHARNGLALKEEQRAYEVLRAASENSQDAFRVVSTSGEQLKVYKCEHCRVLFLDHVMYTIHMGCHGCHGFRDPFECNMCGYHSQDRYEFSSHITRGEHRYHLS
UniProt P12004: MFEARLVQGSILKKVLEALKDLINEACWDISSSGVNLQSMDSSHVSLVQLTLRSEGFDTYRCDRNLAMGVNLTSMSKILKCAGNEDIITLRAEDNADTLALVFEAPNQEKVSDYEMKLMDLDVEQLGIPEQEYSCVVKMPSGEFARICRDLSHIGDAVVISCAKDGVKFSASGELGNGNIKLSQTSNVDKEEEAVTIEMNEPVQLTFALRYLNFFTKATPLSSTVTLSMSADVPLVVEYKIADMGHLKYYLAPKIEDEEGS

Results are given in words; binding and its absence hold for the method and conditions named. For part of these data: Binding seen in cells or lysates may run through a third protein. Some binding calls cover weakened binding; strength is not graded here.

Assay [1] has as its target IKAROS (endogenous, G1E2) (mouse (endogenous in G1E2)) (UniProt Q03267). Briefly: co-IP; G1E2 nuclear extracts, endogenous proteins; IP with IKAROS antibodies or IgG, blot PP1α.
In assay [2] the target is IKAROS (endogenous, Jurkat) (human (endogenous in Jurkat)) (UniProt Q13422). Briefly: co-IP; whole cell extracts of Ikaros knock-down (Ik-sh) or non-target control (Nt-sh) Jurkat cells, endogenous proteins.
Assay [3] has the same target. Briefly: co-IP; Jurkat cell nuclear extracts, endogenous proteins; IP with antibodies to IKAROS, BRD4, Mi2, RBBP4, MTA2, MBD3, CDK9 or CYCT1, IgG control; Mi2-CDK9 also with lysis buffer containing 1 µg/ml DNase1.
Assay [4] addresses PCNA (human (endogenous in Jurkat)) (UniProt P12004). Described as above.
For assay [5], the target named is IKAROS (endogenous, Jurkat) (human (endogenous in Jurkat)) (UniProt Q13422). The assay is described as follows: SEC; nuclear extracts of wild type Jurkat cells fractionated on a Superose 6 10/300GL column; fractions analysed by western blot. Background: In gel filtration, larger molecules generally elute earlier.
For assay [6], the target named is CDK9 (human (endogenous in Jurkat)) (UniProt P50750). Briefly: co-IP; Jurkat cell nuclear extracts, endogenous proteins; IP with antibodies to IKAROS, BRD4, Mi2, RBBP4, MTA2, MBD3, CDK9 or CYCT1, IgG control; Mi2-CDK9 also with lysis buffer containing 1 µg/ml DNase1.
Assay [7] has as its target CCNT1 (CYCLIN T1) (human (endogenous in Jurkat)) (UniProt O60563). The description is as above.

“PP1α (endogenous, G1E2) (from UniProt P62137 1-330) (enzyme)”: the binding entry in assay [1] is recorded as “binds”.

For “CDK9 (from UniProt P50750 1-372) (enzyme)”, the binding result in assay [2] is given as “binds”; in assay [3] it was “binds”; in assay [4], “no binding”; in assay [5] it was “binds”.

RBBP4 (from UniProt Q09028 1-425): the binding result in assay [6] was “binds”; in assay [7], “binds”; in assay [4], “no binding”.

On to “Protein Phosphatase 1α (PP1α) (from UniProt P62136 1-330) (enzyme)”, for which the binding entry in assay [5] is recorded as “binds”.
